Lines with a small IC50 respond at low doses; where the fit passes the top or lowest dose, that dose stands as a limit. For AUC the same curve is integrated over the 256-fold range of doses and scaled to a fraction; values near 1 show little effect.
Compound: COc1ccc(C2=N[C@@H](c3ccc(Cl)cc3)[C@@H](c3ccc(Cl)cc3)N2C(=O)N2CCNC(=O)C2)c(OC(C)C)c1 [Nutlin-3a]
Assay: Viability of human cancer cell lines after 72 h of drug (GDSC screen)
Experimental: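 Human cancer cell lines in 384-well plates, medium with 10% serum, drug for 72 h over a 256-fold dose range (nine 2-fold or five 4-fold steps up to the top dose). Adherent lines were fixed and stained with the nucleic acid dye Syto60, suspension lines read with resazurin; signal relative to control wells, capped at 0 and 100%. One two-parameter sigmoid per drug and line, fitted in a mixed model over all curves with the slope shared within a line.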

Cell Line	AUC	IC50 [µM]
CL-11 (large intestine, adherent, top dose 8 µM)	0.937	> 8
CL-34 (large intestine, adherent, top dose 8 µM)	0.985	> 8
CL-40 (large intestine, adherent, top dose 8 µM)	0.965	> 8
CMK (acute myeloid leukaemia, suspension, top dose 8 µM)	0.98	> 8
CML-T1 (chronic myeloid leukaemia, suspension, top dose 8 µM)	0.87	5.38
COLO-205 (large intestine, suspension, top dose 8 µM)	0.943	> 8
COLO-320-HSR (large intestine, suspension, top dose 8 µM)	0.991	> 8
COLO-668 (small cell lung carcinoma, adherent, top dose 8 µM)	0.983	> 8
COLO-678 (large intestine, semi-adherent, top dose 8 µM)	0.879	> 8
COLO-679 (melanoma, adherent, top dose 8 µM)	0.856	7.74
COLO-680N (oesophagus, adherent, top dose 8 µM)	0.946	> 8
COLO-684 (endometrium, suspension, top dose 8 µM)	0.982	> 8
COLO-783 (melanoma, adherent, top dose 8 µM)	0.97	> 8
COLO-800 (melanoma, adherent, top dose 8 µM)	0.983	> 8
COLO-824 (breast, adherent, top dose 8 µM)	0.986	> 8
COR-L23 (large cell lung carcinoma, adherent, top dose 8 µM)	0.917	> 8
COR-L88 (small cell lung carcinoma, adherent, top dose 8 µM)	0.985	> 8

Cell Line	AUC	IC50 [µM]
COR-L95 (small cell lung carcinoma, adherent, top dose 8 µM)	0.986	> 8
COR-L279 (small cell lung carcinoma, suspension, top dose 8 µM)	0.991	> 8
COR-L321 (lung, suspension, top dose 8 µM)	0.978	> 8
CP50-MEL-B (melanoma, adherent, top dose 8 µM)	0.77	3
CP66-MEL (melanoma, adherent, top dose 8 µM)	0.983	> 8
CPC-N (small cell lung carcinoma, suspension, top dose 8 µM)	0.94	> 8
CRO-AP2 (B-cell lymphoma, suspension, top dose 8 µM)	0.653	1.25
CS1 (bone, adherent, top dose 8 µM)	0.978	> 8
CTV-1 (acute myeloid leukaemia, suspension, top dose 8 µM)	0.867	4.94
CW-2 (large intestine, adherent, top dose 8 µM)	0.925	> 8
Ca9-22 (head and neck, adherent, top dose 8 µM)	0.969	> 8
Ca-Ski (cervix, adherent, top dose 8 µM)	0.976	> 8
CaR-1 (large intestine, adherent, top dose 8 µM)	0.975	> 8
Calu-3 (lung adenocarcinoma, adherent, top dose 8 µM)	0.967	> 8
Calu-6 (lung adenocarcinoma, adherent, top dose 8 µM)	0.935	> 8
Caov-4 (ovary, adherent, top dose 8 µM)	0.979	> 8

Source: the supplement of paper PMC4967469
